Screen size: about 91,000 compounds; about 290 (0.32%) were called active. The inconclusive results got no clear call from the source; some entries with a clear call stand among them for comparison. Calls follow the shape of the dose curve; as a rule, active = well fitted inhibition curve with a large enough effect; inconclusive = small, poorly fitted or top-dose-only effect; inactive = no such curve, though single readings can be large or run the other way. Potencies beside an inconclusive call are fits to weak or partial responses and may not hold up.
biological target: Single-stranded DNA cytosine deaminase (Homo sapiens) (UniProt Q9GZX7); test: Primary qHTS assay for inhibitors of Activation Induced Cytidine Deaminase (AID): AID signal; details: AID deamination FRET fluorescence, UDG-coupled, 4 h; series mostly up to 115 µM; also: nearly all actives have a fitted effect of over 25% in size
Potency is read from the fitted curve at half-maximal effect; tags tell the direction and shape of the fitted curve.

Chain of UniProt Q9GZX7 (Q9GZX7 whole entry, looked up): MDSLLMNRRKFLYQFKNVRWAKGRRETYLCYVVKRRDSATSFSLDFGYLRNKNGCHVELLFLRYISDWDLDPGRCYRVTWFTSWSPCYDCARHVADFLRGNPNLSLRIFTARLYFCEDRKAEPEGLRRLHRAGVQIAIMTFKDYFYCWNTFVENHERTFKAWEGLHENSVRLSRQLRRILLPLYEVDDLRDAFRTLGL

Compound | Potency
COc1cc(OC)cc(C(=O)N2CCN(C(=O)COc3ccc(C)cc3)CC2)c1 | inconclusive: 50.1 µM [inhibitor, partial curve, poor fit]
COC(=O)/C=C/C(=O)Nc1cc(Cl)ccc1O | inactive
CCCC1(C)NC(=O)N(Cc2coc(-c3cccs3)n2)C1=O (configuration not stated) | inactive
N#Cc1nc(/C=C/c2ccc(F)cc2)oc1N1CCCCCC1 | inconclusive: 8.91 µM [inhibitor, full curve, poor fit]
COc1ccc(CN(Cc2ccco2)C(=O)COc2ccccc2Cl)cc1 | inconclusive: 50.1 µM [inhibitor, partial curve, poor fit]
Cc1c(Cl)cccc1NC(=O)CSc1nc(=O)[nH]c2c1CCC2 | inconclusive: 25.1 µM [inhibitor, single point]
CCCc1nn2c(=O)cc(COC(=O)c3cccc(NC(=O)c4ccc(OCC)cc4)c3)nc2s1 | inconclusive: 100 µM [inhibitor, single point]
CCn1c(-c2ccc(O)c(OC)c2)nc2c1c(=O)[nH]c(=O)n2Cc1ccccc1 | inactive
Cc1ccc2c(=O)c(S(=O)(=O)c3ccccc3)cn(CC(=O)Nc3ccc4c(c3)OCCO4)c2n1 | inactive
CCC(=O)Oc1c(Sc2ccc(C)cc2)c(C)nn1-c1ccccc1 | inconclusive: 3.55 µM [inhibitor, full curve, poor fit]
CCOc1ccccc1C(=O)N1CCc2cc(OC)c(OC)cc2C1COc1ccc(OC)cc1 (configuration not stated) | inconclusive: 35.5 µM [inhibitor, partial curve, poor fit]
O=C(c1ccccc1)c1cn(Cc2ccc(F)cc2)c2ccccc2c1=O | inconclusive: 50.1 µM [inhibitor, partial curve, poor fit]
Fc1ccc(CNC(=S)NCc2ccc(Cl)c(Cl)c2)cc1 | inactive
C/C(=N\NC(=O)c1cccc2ccccc12)c1ccc(C)s1 | inactive
Cc1ccc(-c2ccc(=O)n(CC(=O)NCCc3ccc(Cl)cc3)n2)cc1 | inconclusive: 70.8 µM [inhibitor, partial curve, poor fit]
Cc1cc(C)c(NS(=O)(=O)c2ccc3c(c2)CC(C)N3C(=O)C2CCC2)c(C)c1 (configuration not stated) | inconclusive: 22.4 µM [inhibitor, single point]
COc1nnc(-c2ccc(N3CCOCC3)c(NC(=O)C3CCCCC3)c2)c2ccccc12 | inconclusive: 79.4 µM [inhibitor, partial curve]
CCCCn1c(=O)[nH]c(=O)c2c1nc(CNc1cc(F)ccc1C)n2CC | inconclusive: 50.1 µM [inhibitor, partial curve]
CCc1nnc(SC(CC)C(=O)Nc2ccc(OC)c(Cl)c2)c2cc3occc3n12 (configuration not stated) | inconclusive: 79.4 µM [inhibitor, partial curve, poor fit]
O=C(CCC1CCCC1)N1CCc2c([nH]c3ccccc23)C1c1ccc(F)cc1 (configuration not stated) | inconclusive: 17.8 µM [inhibitor, partial curve, poor fit]
COc1ccc(-c2cc3nc(C)c(CCC(=O)NCc4ccccc4Cl)c(C)n3n2)c(OC)c1 | inconclusive: 28.2 µM [inhibitor, partial curve, poor fit]
O=C(Cc1ccccc1)N(Cc1cccnc1)c1nc2c(Cl)cccc2s1 | inconclusive: 20 µM [inhibitor, full curve, poor fit]
CCOC(=O)c1c(C)oc2nc(C)nc(N3CCN(c4cc(Cl)ccc4C)CC3)c12 | inconclusive: 100 µM [inhibitor, single point]

Compound | Potency
Cc1cc2c(C)c(C)[nH]c2cc1Br | inactive
O=C(c1cc(-c2cccc(Cl)c2)on1)N1CCCCC1 | inactive
COc1ccc(NC(=O)c2cc3c(=O)n(Cc4cccs4)ccc3nc2C)cc1 | inconclusive: 100 µM [inhibitor, single point]
Oc1ccc2ccccc2c1C=Nc1ccc(F)c(F)c1F | inconclusive: 100 µM [inhibitor, single point]
CN(C(=O)c1cc2c(Cl)nc3ccccc3c2s1)c1cccc(C(F)(F)F)c1 | inconclusive: 4.47 µM [inhibitor, full curve, poor fit]
COc1cccc(NC(=O)N(Cc2c[nH]c3ccccc23)C2CCCCCC2)c1 | inconclusive: 89.1 µM [inhibitor, single point]
Cc1ccc(S(=O)(=O)N2CCC(C(=O)Nc3nnc(-c4ccc(Cl)cc4)o3)CC2)c(C)c1 | inactive
Cc1cccc(-c2nc(CN3CCCC(C(=O)NCc4ccc(Cl)cc4)C3)c(C)o2)c1 (configuration not stated) | inconclusive: 39.8 µM [inhibitor, single point]
CCC1CCc2nc3sc(C(=O)Nc4ccc(C)cc4C)c(N)c3cc2C1 (configuration not stated) | inactive
CSc1ccc(-c2nc3c(C)cccn3c2Nc2ccc3c(c2)OCCO3)cc1 | inconclusive: 79.4 µM [inhibitor, partial curve, poor fit]
N=c1n(CCN2CCCCC2)c2ccccc2n1CC(O)COc1ccccc1 (configuration not stated) | inconclusive: 79.4 µM [inhibitor, partial curve, poor fit]
CCCSc1n[nH]c2nc3c(c(=O)n12)C(C)(CC)Cc1ccccc1-3 (configuration not stated) | inactive
CC(C)CN(CCNC(=O)c1cn(C)c2ccc(S(=O)(=O)N3CCOCC3)cc2c1=O)CC(C)C | inconclusive: 39.8 µM [inhibitor, single point]
Cc1ccc(C=Nc2ccc(Nc3ccccc3)cc2)s1 | inactive
Cn1nc(C(=O)NCc2ccc(F)cc2)c2c1-c1ccccc1SC2 | inconclusive: 28.2 µM [inhibitor, partial curve]
CC1CCN(C(=O)CN2c3ccc(C(C)C)cc3-c3ccccc3S2(=O)=O)CC1 | inconclusive: 10 µM [inhibitor, full curve, poor fit]
CC(=O)Nc1cc(C)c(I)cc1C | inactive
Cc1ccc(Cn2c(CCCNC(=O)c3ccco3)nc3ccccc32)cc1 | inactive
CC1CCC2(CC1)NC(=O)N(Cc1coc(-c3cccs3)n1)C2=O (configuration not stated) | inactive
COc1ccc(-c2nc(CS(=O)(=O)CC(=O)NCCc3cc(OC)ccc3OC)c(C)o2)cc1 | inactive
COc1ccc(OC)c(-c2noc(N3CCN(c4cc(C)ccc4C)CC3)n2)c1 | inconclusive: 28.2 µM [inhibitor, partial curve, poor fit]
COc1ccc(OC)c(CCNC(=O)Cn2ccc3cc(S(=O)(=O)N4CCCCC4)ccc32)c1 | inconclusive: 28.2 µM [inhibitor, single point]
Cc1ccc(CNc2ncnc3c2c(-c2ccccc2)cn3-c2ccccc2)cc1 | inconclusive: 17.8 µM [inhibitor, full curve, poor fit]

Compound | Potency
CC(=O)C[C@](N)(c1ccc(C)cc1)C(F)(F)F | inactive
O=C(c1ccc(Br)s1)N(Cc1cccc(Br)c1)C1CC1 | inconclusive: 25.1 µM [inhibitor, partial curve, poor fit]
CCCSc1nc(-c2ccc(OC)cc2)cc(-c2ccccc2OC)c1C#N | inconclusive: 35.5 µM [inhibitor, full curve, poor fit]
Cc1ccc2occ(CC(=O)Nc3ccc(S(=O)(=O)N4CCCC(C)C4)cc3)c2c1 (configuration not stated) | inconclusive: 25.1 µM [inhibitor, full curve]
O=C(Nc1ccc(Cl)c(C(F)(F)F)c1)c1ccc2c(c1)CCN2S(=O)(=O)c1ccccc1 | inconclusive: 10 µM [inhibitor, full curve, poor fit]
COc1ccc(Br)cc1CNC(=O)c1cnc2sc(N3CCCCCC3)nn2c1=O | active: 17.8 µM
N#C/C(=C\c1c[nH]c2ccccc12)c1ccccc1 | inactive
Cn1nc(-c2ccc(OCC(=O)Nc3ccc(Cl)cc3)cc2)c2ccccc2c1=O | inconclusive: 20 µM [inhibitor, full curve, poor fit]
CCOc1ccc(-n2c(=O)c3c(C)c(C)sc3n(CC(=O)Nc3ccc(CC)cc3)c2=O)cc1 | inconclusive: 50.1 µM [inhibitor, partial curve, poor fit]
CN(CC(=O)Nc1ccc(Oc2ccccc2)cc1)C1=NS(=O)(=O)c2ccccc21 | inactive
c1ccc(CNCc2ccc(OCc3ccccc3)cc2)cc1 | inactive
CC(C)CC(NC(=O)c1ccc(-c2ccccc2)cc1)C(=O)O (configuration not stated) | inactive
Cc1ccc(C(=O)Nc2ncn(CC(=O)NCc3ccccc3)n2)cc1 | inactive
Cc1cc(C)cc(NC(=O)C2CCN(C(=O)c3cnn(-c4ccccc4)c3-n3cccc3)CC2)c1 | inconclusive: 39.8 µM [inhibitor, partial curve, poor fit]
c1cc(-c2ccn[nH]2)ccn1 | inactive
COc1ccc(CCNC(=O)c2c[nH]n3c(=O)c(Cc4ccccc4Cl)c(C)nc23)cc1OC | inconclusive: 79.4 µM [inhibitor, single point]
CCOc1ccc2oc(C(=O)N3CCN(CC(=O)Nc4c(C)cccc4C)CC3)c(C)c2c1 | inactive
Cc1c(NC(=O)CC23CC4CC(CC(C4)C2)C3)cccc1-c1nc2ncccc2o1 | inconclusive: 22.4 µM [inhibitor, partial curve, poor fit]
COc1ccc(C2c3c(n(C)c4ccccc34)C(=O)N2CC(=O)Nc2ccccc2Cl)cc1 (configuration not stated) | inconclusive: 35.5 µM [inhibitor, full curve, poor fit]
CCc1ccc(Nc2ncnc3sc4c(c23)CCCC4)cc1 | inconclusive: 5.01 µM [inhibitor, full curve, poor fit]
Cc1ccc(C)c(Nc2ncnc3c2cnn3-c2ccc(F)cc2)c1 | inconclusive: 35.5 µM [inhibitor, full curve, poor fit]

— PubChem BioAssay AID1347428 (National Center for Advancing Translational Sciences (NCATS), 2020)
